Measurements as given in the supplement of paper PMC4967469.
A lower IC50 marks a more sensitive line; a limit (>, <) means that the fit lies beyond the doses tested. AUC, from the same fit, is the share of area under the viability curve across the 256-fold dose range; values near 1 show little effect. For some of these results: Where the top dose is marked as inferred, it comes from the curve model; the source does not state it. For some of these results: An entry number marks a drug with two screens in the source, which often give different values.

Experiments:
Assay in all cases: Viability of human cancer cell lines after 72 h of drug (GDSC screen)
Thapsigargin = compound: C/C=C(/C)C(=O)O[C@H]1C(C)=C2[C@H]([C@@H]1OC(=O)CCCCCCC)[C@@](C)(OC(C)=O)C[C@H](OC(=O)CCC)[C@@]1(O)[C@H]2OC(=O)[C@@]1(C)O [Thapsigargin]; conditions: top dose 0.512 µM; top dose inferred
Description: (§1)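 Human cancer cell lines in 384-well plates, medium with 10% serum, drug for 72 h over a 256-fold dose range (nine 2-fold or five 4-fold steps up to the top dose). Adherent lines were fixed and stained with the nucleic acid dye Syto60, suspension lines read with resazurin; signal relative to control wells, capped at 0 and 100%. One two-parameter sigmoid per drug and line, fitted in a mixed model over all curves with the slope shared within a line.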

QL-X-138 = compound: C=CC(=O)Nc1cc(-n2c(=O)ccc3cnc4ccc(-c5cn[nH]c5)cc4c32)ccc1C [QL-X-138]; conditions: top dose 10.24 µM; top dose inferred
Description: as §1

GSK269962A = compound: CCn1c(-c2nonc2N)nc2cnc(Oc3cccc(NC(=O)c4ccc(OCCN5CCOCC5)cc4)c3)cc21 [GSK269962A]; conditions: top dose inferred
Description: as §1

MPS-1-IN-1 = compound: COc1cc(N2CCC(O)CC2)ccc1Nc1cc(Nc2ccccc2S(=O)(=O)C(C)C)c2cc[nH]c2n1 [MPS-1-IN-1]; conditions: top dose 20 µM; top dose inferred
Description: as §1

(5Z)-7-Oxozeaenol = compound: COc1cc(O)c2c(c1)/C=C/C[C@H](O)[C@H](O)C(=O)/C=C\C[C@H](C)OC2=O [(5Z)-7-Oxozeaenol]; conditions: top dose 10 µM; top dose inferred
Description: as §1

CP466722 = compound: COc1cc2ncnc(-n3nc(-c4ccccn4)nc3N)c2cc1OC [CP466722]; conditions: top dose 16 µM; top dose inferred
Description: as §1

Zibotentan = compound: COc1nc(C)cnc1NS(=O)(=O)c1cccnc1-c1ccc(-c2nnco2)cc1 [Zibotentan]; conditions: top dose 20 µM; top dose inferred
Description: as §1

ABT-888 = compound: C[C@]1(c2nc3c(C(N)=O)cccc3[nH]2)CCCN1 [ABT-888]; conditions: top dose 5 µM; top dose inferred
Description: as §1

CMK = compound: Cc1ccc(-c2c(C(=O)CCl)n(CCCO)c3ncnc(N)c23)cc1 [CMK]; conditions: top dose 4 µM; top dose inferred
Description: as §1

ABT-869 = compound: Cc1ccc(F)c(NC(=O)Nc2ccc(-c3cccc4[nH]nc(N)c34)cc2)c1 [ABT-869]; conditions: top dose 1.024 µM; top dose inferred
Description: as §1

CHIR-99021 = compound: Cc1cnc(-c2cnc(NCCNc3ccc(C#N)cn3)nc2-c2ccc(Cl)cc2Cl)[nH]1 [CHIR-99021]
Description: as §1

KU-55933 = compound: O=c1cc(-c2cccc3c2Sc2ccccc2S3)oc(N2CCOCC2)c1 [KU-55933]; conditions: top dose 10 µM
Description: as §1

[1] = top dose 2.5 µM, screen: GDSC drug entry 127
[2] = top dose 5 µM, screen: GDSC drug entry 1192
[3] = top dose 2.56 µM, screen: GDSC drug entry 154
[4] = top dose 10 µM, screen: GDSC drug entry 1241, top dose inferred

Cell Line | AUC (Thapsigargin) | IC50 (Thapsigargin) [µM] | AUC (QL-X-138) | IC50 (QL-X-138) [µM] | AUC (GSK269962A; [1]) | IC50 (GSK269962A; [1]) [µM] | AUC (GSK269962A; [2]) | IC50 (GSK269962A; [2]) [µM] | AUC (MPS-1-IN-1) | IC50 (MPS-1-IN-1) [µM] | AUC ((5Z)-7-Oxozeaenol) | IC50 ((5Z)-7-Oxozeaenol) [µM] | AUC (CP466722) | IC50 (CP466722) [µM] | AUC (Zibotentan) | IC50 (Zibotentan) [µM] | AUC (ABT-888) | IC50 (ABT-888) [µM] | AUC (CMK) | IC50 (CMK) [µM] | AUC (ABT-869) | IC50 (ABT-869) [µM] | AUC (CHIR-99021; [3]) | IC50 (CHIR-99021; [3]) [µM] | AUC (CHIR-99021; [4]) | IC50 (CHIR-99021; [4]) [µM] | AUC (KU-55933) | IC50 (KU-55933) [µM]
ES8 (Ewing sarcoma, adherent) | 0.307 | 0.00962 | 0.39 | 0.327 | 0.736 | 0.693 | 0.803 | 2.26 | 0.686 | 3.97 | 0.561 | 0.905 | 0.725 | 4.11 | 0.985 | > 20 | 0.957 | > 5 | 0.897 | > 4 | 0.975 | > 1.02 | 0.956 | > 2.56 | 0.986 | > 10 | 0.958 | > 10
EW-1 (Ewing sarcoma, semi-adherent) | 0.173 | 0.00368 | 0.371 | 0.291 | 0.975 | > 2.5 | 0.988 | > 5 | 0.667 | 3.49 | 0.829 | 5.54 | 0.629 | 2.19 | 0.985 | > 20 | 0.984 | > 5 | 0.854 | 2.77 | 0.981 | > 1.02 | 0.989 | > 2.56 | 0.903 | > 10 | 0.976 | > 10
EW-11 (Ewing sarcoma, adherent) | 0.574 | 0.054 | 0.506 | 0.67 | 0.981 | > 2.5 | 0.876 | > 5 | 0.725 | 6.68 | 0.775 | 5.18 | 0.622 | 2.39 | 0.97 | > 20 | 0.972 | > 5 | 0.975 | > 4 | 0.981 | > 1.02 | 0.98 | > 2.56 | 0.978 | > 10 | 0.98 | > 10
GI-1 (glioma, adherent) | 0.147 | 0.00273 | 0.606 | 1.23 | 0.183 | 0.0184 | – | – | 0.912 | > 20 | 0.645 | 1.54 | 0.832 | 9.64 | 0.984 | > 20 | 0.987 | > 5 | 0.741 | 1.18 | 0.978 | > 1.02 | 0.931 | > 2.56 | 0.811 | 5.06 | 0.883 | 9.92
GRANTA-519 (B-cell lymphoma, suspension) | 0.795 | 0.21 | 0.627 | 1.38 | 0.986 | > 2.5 | 0.977 | > 5 | 0.941 | > 20 | 0.796 | 4.15 | 0.768 | 5.43 | 0.991 | > 20 | 0.991 | > 5 | 0.978 | > 4 | 0.99 | > 1.02 | 0.99 | > 2.56 | 0.99 | > 10 | 0.969 | > 10
H9 (lymphoid neoplasm, suspension) | 0.161 | 0.00389 | 0.904 | 9.36 | 0.975 | > 2.5 | 0.949 | > 5 | 0.773 | 6.45 | 0.667 | 1.66 | 0.951 | > 16 | 0.99 | > 20 | 0.992 | > 5 | 0.806 | 1.62 | 0.991 | > 1.02 | 0.964 | > 2.56 | 0.957 | > 10 | 0.991 | > 10
HL-60 (acute myeloid leukaemia, suspension) | 0.888 | 0.474 | 0.754 | 3.12 | 0.953 | > 2.5 | 0.95 | > 5 | 0.835 | 11.3 | 0.797 | 4.17 | 0.761 | 5.15 | 0.989 | > 20 | 0.982 | > 5 | 0.977 | > 4 | 0.988 | > 1.02 | 0.99 | > 2.56 | 0.988 | > 10 | 0.971 | > 10
IST-MEL1 (melanoma, adherent) | 0.145 | < 0.002 | 0.964 | > 10.2 | 0.942 | > 2.5 | 0.846 | 4.75 | 0.829 | 15.8 | 0.552 | 0.889 | 0.785 | 8.31 | 0.978 | > 20 | 0.981 | > 5 | 0.914 | > 4 | 0.972 | > 1.02 | 0.962 | > 2.56 | 0.877 | > 10 | 0.935 | > 10
JVM-2 (lymphoid neoplasm, suspension) | 0.968 | > 0.512 | 0.806 | 6.72 | 0.941 | > 2.5 | 0.807 | 3.31 | 0.908 | > 20 | 0.576 | 1.06 | 0.906 | > 16 | 0.973 | > 20 | 0.9 | > 5 | 0.975 | > 4 | 0.935 | > 1.02 | 0.974 | > 2.56 | 0.958 | > 10 | 0.93 | > 10
KOPN-8 (B-cell leukaemia, suspension) | 0.182 | 0.00431 | 0.359 | 0.278 | – | – | 0.863 | 3.34 | 0.832 | 10.3 | 0.669 | 1.71 | 0.622 | 2.05 | 0.982 | > 20 | 0.99 | > 5 | 0.752 | 1.16 | 0.98 | > 1.02 | 0.976 | > 2.56 | 0.961 | > 10 | 0.953 | > 10
KURAMOCHI (ovary, adherent) | 0.141 | < 0.002 | 0.862 | > 10.2 | 0.952 | > 2.5 | 0.98 | > 5 | 0.939 | > 20 | 0.799 | 5.68 | 0.872 | > 16 | 0.981 | > 20 | 0.984 | > 5 | 0.948 | > 4 | 0.941 | > 1.02 | 0.945 | > 2.56 | 0.871 | > 10 | 0.955 | > 10
L-363 (myeloma, suspension) | 0.188 | 0.00448 | 0.554 | 0.878 | 0.967 | > 2.5 | 0.719 | 1.18 | 0.821 | 9.62 | 0.613 | 1.22 | 0.75 | 4.63 | 0.99 | > 20 | 0.984 | > 5 | 0.868 | 2.85 | 0.99 | > 1.02 | 0.991 | > 2.56 | 0.858 | 6.48 | 0.943 | > 10
L-1236 (Hodgkin lymphoma, suspension) | 0.835 | 0.266 | 0.786 | 3.7 | 0.992 | > 2.5 | 0.958 | > 5 | 0.987 | > 20 | 0.795 | 3.85 | 0.819 | 7.31 | 0.992 | > 20 | 0.992 | > 5 | 0.983 | > 4 | 0.991 | > 1.02 | 0.985 | > 2.56 | 0.851 | 5.88 | 0.945 | > 10
LB831-BLC (bladder, adherent) | 0.226 | 0.00501 | 0.786 | 4.5 | 0.843 | 1.82 | 0.896 | > 5 | 0.958 | > 20 | 0.752 | 3.35 | 0.92 | > 16 | 0.979 | > 20 | 0.976 | > 5 | 0.978 | > 4 | 0.987 | > 1.02 | 0.92 | > 2.56 | 0.947 | > 10 | 0.969 | > 10
LS-411N (large intestine, adherent) | 0.399 | 0.0159 | 0.702 | 2.7 | 0.948 | > 2.5 | 0.862 | > 5 | 0.789 | 11 | 0.612 | 1.36 | 0.778 | 7.98 | 0.977 | > 20 | 0.946 | > 5 | 0.915 | > 4 | 0.975 | > 1.02 | 0.965 | > 2.56 | 0.959 | > 10 | 0.969 | > 10
LXF-289 (lung adenocarcinoma, adherent) | 0.043 | < 0.002 | 0.821 | 5.78 | 0.937 | > 2.5 | 0.824 | 2.91 | 0.926 | > 20 | 0.831 | 6.2 | 0.717 | 4.06 | 0.985 | > 20 | 0.973 | > 5 | 0.924 | > 4 | 0.982 | > 1.02 | 0.97 | > 2.56 | 0.885 | > 10 | 0.892 | > 10
ML-2 (acute myeloid leukaemia, suspension) | 0.387 | 0.0163 | 0.384 | 0.319 | 0.79 | 0.98 | 0.55 | 0.42 | 0.693 | 4.06 | 0.469 | 0.519 | 0.674 | 2.87 | 0.98 | > 20 | 0.984 | > 5 | 0.921 | > 4 | 0.971 | > 1.02 | 0.99 | > 2.56 | 0.988 | > 10 | 0.984 | > 10
